Measurements: paper PMC4336329 (PLoS ONE, 2015)
About 2,200 (0.71%) of roughly 310,000 compounds showed an effect of 50% or more. Effects have a minus sign here. The list shows a part of the results.

What follows are compounds tested against human ether-à-go-go-related gene (hERG) potassium channel (human, UniProt Q12809) (assay: primary screen, population patch clamp on CHO cells stably expressing hERG).
Chain of human ether-à-go-go-related gene (hERG) potassium channel (Q12809 whole entry, looked up): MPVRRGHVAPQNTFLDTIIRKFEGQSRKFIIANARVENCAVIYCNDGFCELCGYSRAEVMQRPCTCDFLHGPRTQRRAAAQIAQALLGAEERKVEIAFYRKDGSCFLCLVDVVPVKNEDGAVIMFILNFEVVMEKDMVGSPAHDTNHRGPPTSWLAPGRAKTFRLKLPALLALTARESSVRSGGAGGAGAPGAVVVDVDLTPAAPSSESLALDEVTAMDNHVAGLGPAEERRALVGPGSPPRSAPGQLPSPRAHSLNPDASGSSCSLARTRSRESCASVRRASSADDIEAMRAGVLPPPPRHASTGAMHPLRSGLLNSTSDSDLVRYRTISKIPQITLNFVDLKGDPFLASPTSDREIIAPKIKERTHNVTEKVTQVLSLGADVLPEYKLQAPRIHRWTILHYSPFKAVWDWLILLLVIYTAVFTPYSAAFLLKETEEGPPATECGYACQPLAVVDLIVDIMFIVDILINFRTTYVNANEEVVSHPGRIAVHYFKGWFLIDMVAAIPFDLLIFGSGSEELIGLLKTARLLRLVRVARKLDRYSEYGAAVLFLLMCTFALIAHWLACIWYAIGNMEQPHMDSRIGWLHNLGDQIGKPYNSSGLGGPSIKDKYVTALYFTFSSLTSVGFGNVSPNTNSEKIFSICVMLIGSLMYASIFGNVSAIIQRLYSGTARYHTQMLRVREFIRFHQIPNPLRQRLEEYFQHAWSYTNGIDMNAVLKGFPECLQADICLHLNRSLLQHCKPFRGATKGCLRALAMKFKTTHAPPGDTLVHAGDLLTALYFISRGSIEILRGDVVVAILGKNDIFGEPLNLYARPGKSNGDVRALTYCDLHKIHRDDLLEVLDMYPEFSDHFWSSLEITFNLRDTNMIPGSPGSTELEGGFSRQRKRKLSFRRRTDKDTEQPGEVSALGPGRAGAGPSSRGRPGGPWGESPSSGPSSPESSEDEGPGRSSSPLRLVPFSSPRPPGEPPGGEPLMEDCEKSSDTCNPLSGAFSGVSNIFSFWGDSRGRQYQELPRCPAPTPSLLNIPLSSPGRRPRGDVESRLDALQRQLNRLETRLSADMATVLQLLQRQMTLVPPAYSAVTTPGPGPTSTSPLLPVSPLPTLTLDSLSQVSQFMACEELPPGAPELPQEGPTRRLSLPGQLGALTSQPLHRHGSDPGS

Row | Structure (SMILES) | hERG current change (%, negative = inhibition) at 1uM
1 | CC(=O)Nc1ccc(Nc2ncnc3ccccc23)cc1 | 6.75%
2 | COc1ccccc1N(C)S(=O)(=O)c1ccc(Cl)c(C(=O)N2CCC(C(N)=O)CC2)c1 | 7.6%
3 | O=C(OCc1nnc(-c2ccccc2)o1)c1cc(F)c(F)cc1Cl | 6.81%
4 | COc1ccc(C(C(=O)NCC2CCCO2)N(Cc2cccs2)C(=O)c2snc(C(N)=O)c2N)cc1 (centres unmarked) | 18%
5 | CCN(CC)c1ccc(-n2c(C)c(C(C)=O)c(C(C)=O)c2C)cc1 | 17.4%
6 | CCOc1ccc(/C=N/NS(=O)(=O)c2ccc(C)cc2)cc1OC | 15.4%
7 | COc1ccc(N2CCN(CC(O)COC(C)(C)C)CC2)cc1.O=C(O)C(=O)O (centres unmarked) | 12.5%
8 | Cc1cc([N+](=O)[O-])nn1CCCC(=O)Nc1sc2c(c1C(N)=O)CCC(C)C2 (centres unmarked) | 0.741%
9 | Cc1cc2ncn(S(=O)(=O)c3ccc(S(=O)(=O)N4CCOCC4)cc3)c2cc1C | 4.34%
10 | O=c1[nH]c(=S)c2c(n1-c1ccccc1)CCC2 | 7.19%
11 | CCOC(=O)c1ccc(CNC(=O)C2CCC(=O)N(CCc3ccccc3)C2)o1 (centres unmarked) | 18%
12 | CC(C)C(=O)Nc1cccc(NC(=O)c2cccc([N+](=O)[O-])c2)c1 | -8.83%
13 | COCCn1c(-c2cccc([N+](=O)[O-])c2)nc2c1c(=O)[nH]c(=O)n2Cc1ccccc1 | -42.9%
14 | Cn1c(=O)c2c(nc(Cl)n2Cc2ccc(Cl)c(Cl)c2)n(C)c1=O | -4.81%
15 | Cc1onc(-c2ccccc2)c1C(=O)NNC(=O)c1ccccc1Br | 10.5%
16 | COCCNc1nc(C)cc(-c2cc(C(=O)Nc3ccccc3)on2)n1 | 0.262%
17 | Cc1cc(-n2c(SCC(=O)NCCC3=CCCCC3)nc3n[nH]c(C)c3c2=N)ccc1Cl | 2.48%
18 | O=C(Nc1cccc2c1C(=O)NC2=O)c1ccccc1[N+](=O)[O-] | 12.1%
19 | CCOC(=O)C1C(=O)NCC1c1ccccc1 (centres unmarked) | 16.7%

Row | Structure (SMILES) | hERG current change (%, negative = inhibition) at 1uM
20 | Cc1nnc(SCC(=O)N2CCCCC2)n1CC1CCCO1 (centres unmarked) | 8.12%
21 | CC(Oc1ccccc1)C(=O)Nc1nc(-c2ccncc2)cs1 (centres unmarked) | 16.9%
22 | CCOC(=O)c1sc(Nc2nc3ccc(OC)cc3s2)cc1C | 5.47%
23 | CC1C(=O)Nc2ccccc2N1C(=O)c1ccc(Cl)c(Cl)c1 (centres unmarked) | 11.1%
24 | CCN(CC)c1ccc(C=Nc2ccccc2)c(O)c1 | 9.88%
25 | COc1ccc(CCNC(=O)CCS(=O)(=O)c2ccc(C)cc2)cc1OC | -2.67%
26 | O=C(CCc1nc(-c2ccccc2F)no1)NCCN1CCOCC1 | 10.4%
27 | CCCCN(C(=O)Oc1ccccc1)C1CCS(=O)(=O)C1 (centres unmarked) | -5.02%
28 | O=C(Nc1ccccc1Cl)c1cccs1 | 0.636%
29 | CN(c1ccccc1)P(=O)(N(C)c1ccccc1)N(C)c1ccccc1 | 3.65%
30 | O=C(Nc1ccc(F)cc1)c1ccccc1CC[N+](=O)[O-] | 6.42%
31 | COc1ccc2occ(NC(C)=O)c2c1 | 3.53%
32 | Cn1c(=O)n(CC(=O)N2CCOCC2)c2ccccc21 | 2.5%
33 | COc1cccc(/C=C(/C(=O)OCC(N)=O)c2ccccc2)c1 | 5.68%
34 | CCOc1cc(/C=N\NC(=O)CC(=O)NCCc2ccccc2)ccc1O | 18.6%
35 | CN(CC(=O)Nc1ccc(F)cc1)C(=O)CN1C(=O)c2ccccc2C1=O | 6.79%
36 | Cc1ncc(CC(=O)n2cc(C(=O)c3cc(Cl)ccc3O)cn2)s1 | 7.17%
37 | CN1CCN(C(=O)C2(NC(=O)Nc3cccc(F)c3)CCCCC2)CC1 | -0.779%
38 | O=C(NCc1ccc(F)cc1)C1CCCN(C(=O)NCc2ccccc2)C1 (centres unmarked) | 5.04%

Row | Structure (SMILES) | hERG current change (%, negative = inhibition) at 1uM
39 | Cc1ccc(CNC(=O)Cn2ccc3cc(S(=O)(=O)N4CCCCCC4)ccc32)cc1 | 10.6%
40 | COc1ccc(S(=O)(=O)NNC(=O)c2csc(-n3nc(C)cc3C(F)(F)F)n2)cc1 | 20.7%
41 | COc1cccc(N2CCN(c3c(C#N)c(C(F)(F)F)nn3C)CC2)c1 | -0.992%
42 | COc1cccc(/C=N/NC(=O)c2c(-c3ccccc3)noc2C)c1OC | 11.3%
43 | Cc1ccc(SC(C)c2nc(-c3ccccc3)no2)cc1 (centres unmarked) | 7.67%
44 | C/C(N)=C(/C#N)C(=O)CSc1nc2ccccc2c(=O)n1Cc1ccc(F)cc1 | -3.42%
45 | C=CCn1c(SCC(C)=O)nc2scc(-c3ccc(C)o3)c2c1=O | 13.4%
46 | O=C(Cn1cnc2sc(-c3ccccc3)cc2c1=O)NCc1ccco1 | 4.67%
47 | CCN(CC)c1ccc(S(=O)(=O)Nc2cc(Cl)ccc2Cl)cc1NC(=S)NC(=O)C1CCCC1 | 13.5%
48 | Cc1ccc(Nc2nnc(C)c3ccccc23)c(C)c1 | 9.48%
49 | CCCOc1ccc2oc(=O)c3c(c2c1)CCCN3C(=O)CN1CCCC(C(=O)OCC)C1 (centres unmarked) | -17%
50 | CCOC(=O)N1CCN(C(=O)COc2ccc3c(c2)C(=O)CC2(CCN(C(C)=O)CC2)O3)CC1 | 4.93%
51 | O=C(CN1CCN(S(=O)(=O)c2ccc(C(F)(F)F)cc2)CC1)N1CCNC1=O | 5.17%
52 | Cn1ncc(Cl)c1C(=O)N1CCc2ccccc21 | -4.69%
53 | CC(CCc1ccccc1)NC(=O)c1ccccc1 (centres unmarked) | 8.58%
54 | CC(=O)Nc1c2c(nn1-c1ccc(C)cc1C)CS(=O)C2 (centres unmarked) | 13.3%
55 | CCn1cc(S(=O)(=O)CC(=O)Nc2ccc3c(c2)OCO3)c2ccccc21 | 12.6%
56 | O=C1c2ccccc2C(=O)N1CCSc1nncs1 | -5.9%
